PubChem BioAssay (NCATS)
Inconclusive means that the source gave no clear call. Such entries were picked first, then a sample of the others. Potencies of inconclusive entries are left out as doubtful fits. The source made the active and inactive calls. The call rests on the fitted dose curve; in most records, active means well fitted inhibition curve with a large enough effect; inconclusive means small, poorly fitted or top-dose-only effect; inactive means no such curve, though single readings can be large or run the other way.

Biological target: Cytochrome P450 2D6 (Homo sapiens) (UniProt P10635)
Test: qHTS Assay for Inhibitors and Substrates of Cytochrome P450 2D6 (AID 891);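 further: luciferin methyl ether substrate demethylated by CYP2D6 with NADPH regeneration; nearly all actives have a fitted effect of over 60% in size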; on activity change, negative = inhibition: top concentration of the series differs between compounds
Conditions: recombinant CYP2D6, luciferin-ME EGE luminescence; series mostly up to 11.4 µM; activity change, negative = inhibition: at the top concentration
Procedure, shortened: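 Human CYP2D6 (5 nM) with 30 uM Luciferin-ME EGE (at Km) in 100 mM KPO4, compound preincubated 10 min, then NADPH regeneration system for 60 min at room temperature. Luciferin read by luminescence; normalized to 1.43 uM quinidine.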
On the % scale 0 is the no-effect control and ±100 the full control effect; potency means the concentration at half of the fitted maximal effect; tags describe the fitted curve by direction and shape.

UniProt P10635, sequence (P10635 whole entry, looked up): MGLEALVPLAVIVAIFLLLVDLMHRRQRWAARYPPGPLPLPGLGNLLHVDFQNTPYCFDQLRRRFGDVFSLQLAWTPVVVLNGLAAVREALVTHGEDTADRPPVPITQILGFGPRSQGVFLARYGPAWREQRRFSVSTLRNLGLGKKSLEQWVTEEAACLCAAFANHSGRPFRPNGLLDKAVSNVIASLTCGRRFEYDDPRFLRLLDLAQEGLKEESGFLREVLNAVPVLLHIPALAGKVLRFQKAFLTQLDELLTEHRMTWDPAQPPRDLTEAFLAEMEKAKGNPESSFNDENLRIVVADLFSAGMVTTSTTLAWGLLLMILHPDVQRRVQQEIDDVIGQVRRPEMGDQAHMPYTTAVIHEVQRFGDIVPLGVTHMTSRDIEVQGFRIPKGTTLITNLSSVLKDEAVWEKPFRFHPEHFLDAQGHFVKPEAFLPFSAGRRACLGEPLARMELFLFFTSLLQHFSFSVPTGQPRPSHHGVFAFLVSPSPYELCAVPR

Structure (SMILES)	Potency	activity change, negative = inhibition
Cc1cc2c(c(=O)o1)[C@H](O)[C@H]1O[C@@H]1C2=O	inconclusive [inhibitor, single point]	
CCN1C(C)=C(C(=O)OC)C(c2ccccc2)N2C(=O)[C@@]3(C(=O)OC)O[C@@]12C1C(=O)CCCC13 (stereo partly specified)		inactive: 2.85%
c1ccc2c(CC3NCCN3)cccc2c1	inconclusive [inhibitor, partial curve]	
C/C(CCN1CCCCc2nc(C)c(C)cc21)=N\O[C@@H](C)CN1CCCc2nc(C)c(C)cc21	inconclusive [inhibitor, partial curve]	
CC(C)C[C@@H](CC(=O)N[C@@H](CCC(=O)O)CC(=O)O)NC(=O)[C@@H]1CNCC[C@H]1NC(=O)C[C@@H](NC(=O)C[C@H](CO)NC(=O)[C@@H]1CCCC[C@H]1N)C(C)C		inactive: 6.99% [at 57.1 µM]
COC(=O)[C@@]1(Cc2ccc(OC)cc2)[C@H]2c3cc(C(=O)N(C)C)n(CCc4ccc(OC)c(Br)c4)c3C[C@H]2CN1C(=O)c1ccccc1	inconclusive [inhibitor, single point]	
O=C(N/N=C1/C[C@@H](O)[C@@H](O)[C@@H]2[C@@H]3C(=O)N(Cc4ccc5c(c4)OCO5)C(=O)[C@H]3CC[C@@H]12)OCc1ccccc1	inconclusive [inhibitor, single point]	
COc1ccc(O[C@H]2C=C[C@@H](c3ccccc3)O[C@H]2COC(=O)CC/C(C)=N\O[C@@H](C)c2cn([C@H]3COC[C@H]3O)nn2)cc1	inconclusive [inhibitor, single point]	
CC12CC3OS(=O)OC3CC3C4C(C(OCc5ccccc5)C31)C42 (stereo unspecified)		inactive: -1.8%
COC(=O)C1=C(C)N(Cc2ccccc2)[C@]23O[C@](C(=O)OC)(C(=O)N2C1c1ccccc1)C1CCCC(=O)C13 (stereo partly specified)	inactive	
C/C(CCN1CCCCc2nc(C)c(C)cc21)=N\O[C@@H](C)CN1CCCCc2nc(C)c(C)cc21	inconclusive [inhibitor, single point]	
C=CCC1C=CC(Oc2ccc(F)cc2C)C(CO)O1 (stereo unspecified)		inactive: -5.59%
COc1cccc([C@@H]2Oc3ccc(OC)cc3C(=O)[C@H]2O)c1	inconclusive [inhibitor, partial curve]	
CCCc1cc2c(n1CCc1ccc(Cl)cc1)C(C)C1CN(C(=O)c3ccccc3)C(C)(C(=O)OC)C21 (stereo unspecified)	active: 5.01 µM	
CC1CCC2C(=O)OC(COc3ccc(C(C)(C)C)cc3)CN2C1c1ccc(Br)cc1 (stereo unspecified)	inactive	
CC1CCC2C(=O)N3CCCC3C(=O)N2C1c1ccc(Br)cc1 (stereo unspecified)		inactive: -5.13%

Structure (SMILES)	Potency	activity change, negative = inhibition
Cc1c(Cl)c(S(N)(=O)=O)cc2c1=NC=NS=2(=O)O	inconclusive [inhibitor, partial curve]	
C[C@@H]1CC[C@@H]2C(=O)N3[C@@H](CC[C@@H](C)[C@@H]3c3ccc(-c4ccco4)cc3)C(=O)N2[C@H]1c1ccc(-c2ccco2)cc1	inconclusive [inhibitor, single point]	
NCCC[C@@H](CC(=O)N[C@@H]1CCCC[C@H]1C(=O)N[C@H](CC(=O)N[C@@H](CCC(=O)O)CC(=O)O)Cc1c[nH]c2ccccc12)NC(=O)C[C@H](Cc1c[nH]c2ccccc12)NC(=O)[C@@H]1CNCC[C@H]1N		inactive: -4.43% [at 57.1 µM]
Oc1ccc(Cl)cc1C=Nc1cnc2ccccc2c1	inconclusive [inhibitor, partial curve]	
Cc1ccc(/C=C/C2=CC3(C)CC2(C)C(c2ccc(C)cc2)CC3=O)cc1 (stereo unspecified)		inactive: -17.2%
COC(C(C)/C=C/CC(=O)OCCCc1ccccc1)C1CCCCC1 (stereo unspecified)		inactive: 12.9%
CC1CCC2C(=O)OC(CO)CN2C1c1ccc(Br)cc1 (stereo unspecified)		inactive: 1.85%
CCN1C(=O)[C@H]2[C@H]3[C@H](O)[C@H](O)C/C(=N/O[C@@H]4O[C@@H](COC(C)=O)[C@@H](OC(C)=O)[C@@H](OC(C)=O)[C@H]4OC(C)=O)[C@H]3CC[C@@H]2C1=O	inconclusive [inhibitor, partial curve]	
Cc1ccc(-[n+]2cc(=O)o[nH]2)cc1	inconclusive [inhibitor, partial curve]	
CCOC(=O)OCC1OC(C#Cc2ccc(F)cc2F)C=CC1OC(=O)OCC (stereo unspecified)		inactive: 1.19%
CC(=O)OC[C@@H]1O[C@@H](O/N=C2/C[C@@H](O)[C@@H](O)[C@@H]3[C@@H]4C(=O)N([C@@H](C)c5ccccc5)C(=O)[C@H]4CC[C@H]23)[C@H](OC(C)=O)[C@H](OC(C)=O)[C@@H]1OC(C)=O	inconclusive [inhibitor, partial curve]	
CCOC(=O)OCC1OC(c2ccccc2)C=CC1Oc1ccc2oc(=O)cc(C)c2c1 (stereo unspecified)		inactive: 0.486%
CCN1C(=O)[C@H]2[C@H]3[C@H](O)[C@H](O)C/C(=N/O[C@@H]4O[C@@H](COC(C)=O)[C@@H](OC(C)=O)[C@@H](OC(C)=O)[C@H]4OC(C)=O)[C@@H]3CC[C@@H]2C1=O	inconclusive [inhibitor, single point]	
C[N+](C)(C)/N=C\c1ccc(O)c(O)c1	inconclusive [inhibitor, partial curve, poor fit]	
COc1ccc(/C=C/C(=O)c2ccc(OC)cc2O)cc1		inactive: -16.6%
